Experimental data as given in US20150218260A1 (Hoffmann-La Roche, published 2015).
Substitutions are numbered along the chain they refer to. In names and notes the source's numbering stands. Values belong to the binder of their own block, whether it stands above or below them.

How the values were obtained:
[1] = molecular target: T1, human IL-2R βγ heterodimer (IL-2R β-subunit-Fc(hole) / IL-2R γ-subunit-Fc(knob)) (human, biotinylated (site not stated)); experiment: SPR Biacore T200, 25 C; biotinylated IL-2R βγ-Fc heterodimer on SA chip, fusion protein as analyte; kinetics, 1:1 fit
T1 construct: also called Hu IL-2R βγ; IL-2R βγ subunit-Fc fusion
Procedure: (§1) Affinities were determined by steady state analysis.

[2] = molecular target: T2, murine IL-2R βγ heterodimer (IL-2R β-subunit-Fc(hole) / IL-2R γ-subunit-Fc(knob)) (mouse, biotinylated (site not stated)); experiment: as above
T2 construct: also called Mu IL-2R βγ
Procedure: as §1

[3] = molecular target: T3, cynomolgus IL-2R βγ heterodimer (IL-2R β-subunit-Fc(hole) / IL-2R γ-subunit-Fc(knob)) (cynomolgus, biotinylated (site not stated)); experiment: as above
T3 construct: also called Cy IL-2R βγ
Procedure: as §1

[4] = molecular target: T4, human IL-2R α-subunit, monomeric, with AcTev cleavage site and Avi His tag (human); experiment: SPR Biacore T200, 25 C; IL-2R α-subunit amine-coupled on CM5 chip, fusion protein as analyte; steady state
T4 construct: also called Hu IL-2R α; CD25
T4 chain: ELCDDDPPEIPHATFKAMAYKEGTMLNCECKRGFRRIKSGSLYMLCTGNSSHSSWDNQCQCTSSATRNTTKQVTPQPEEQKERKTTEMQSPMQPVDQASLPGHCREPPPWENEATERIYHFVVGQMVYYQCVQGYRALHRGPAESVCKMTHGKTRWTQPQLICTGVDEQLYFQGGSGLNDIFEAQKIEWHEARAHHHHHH
Procedure: as §1

[5] = molecular target: T5, cynomolgus IL-2R α-subunit, monomeric, with AcTev cleavage site and Avi His tag (cynomolgus); experiment: as above
T5 construct: also called Cy IL-2R α
T5 chain: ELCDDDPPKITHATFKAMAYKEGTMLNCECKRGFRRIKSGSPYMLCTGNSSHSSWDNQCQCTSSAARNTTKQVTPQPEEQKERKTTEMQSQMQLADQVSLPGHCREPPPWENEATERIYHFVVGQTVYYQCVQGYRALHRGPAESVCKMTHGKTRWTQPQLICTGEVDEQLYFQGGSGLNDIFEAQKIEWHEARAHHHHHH
Procedure: as §1

[6] = molecular target: T6, murine IL-2R α-subunit, monomeric, with AcTev cleavage site and Avi His tag (mouse); experiment: as above
T6 construct: also called Mu IL-2R α
T6 chain: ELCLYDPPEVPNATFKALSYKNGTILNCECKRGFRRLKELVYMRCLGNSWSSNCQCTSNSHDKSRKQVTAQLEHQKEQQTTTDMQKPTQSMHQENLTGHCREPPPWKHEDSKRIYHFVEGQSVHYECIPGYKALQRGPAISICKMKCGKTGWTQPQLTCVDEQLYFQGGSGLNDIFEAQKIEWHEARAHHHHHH
Procedure: as §1

[7] = molecular target: T7, human high affinity IL-2 receptor (IL-2RA/CD25, IL-2RB/CD122, IL-2RG/CD132) on human peripheral blood cells (human, UniProt P01589 22-272; P14784 27-551; P31785 23-369); experiment: cell-based or functional assay
T7 sequence (looked up) 1: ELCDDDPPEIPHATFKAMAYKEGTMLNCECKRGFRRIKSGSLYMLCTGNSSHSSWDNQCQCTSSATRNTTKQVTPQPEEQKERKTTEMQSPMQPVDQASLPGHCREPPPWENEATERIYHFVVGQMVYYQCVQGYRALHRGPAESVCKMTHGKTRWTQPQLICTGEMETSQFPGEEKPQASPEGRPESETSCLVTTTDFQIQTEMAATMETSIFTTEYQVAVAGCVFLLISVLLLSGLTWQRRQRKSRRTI
T7 sequence (looked up) 2: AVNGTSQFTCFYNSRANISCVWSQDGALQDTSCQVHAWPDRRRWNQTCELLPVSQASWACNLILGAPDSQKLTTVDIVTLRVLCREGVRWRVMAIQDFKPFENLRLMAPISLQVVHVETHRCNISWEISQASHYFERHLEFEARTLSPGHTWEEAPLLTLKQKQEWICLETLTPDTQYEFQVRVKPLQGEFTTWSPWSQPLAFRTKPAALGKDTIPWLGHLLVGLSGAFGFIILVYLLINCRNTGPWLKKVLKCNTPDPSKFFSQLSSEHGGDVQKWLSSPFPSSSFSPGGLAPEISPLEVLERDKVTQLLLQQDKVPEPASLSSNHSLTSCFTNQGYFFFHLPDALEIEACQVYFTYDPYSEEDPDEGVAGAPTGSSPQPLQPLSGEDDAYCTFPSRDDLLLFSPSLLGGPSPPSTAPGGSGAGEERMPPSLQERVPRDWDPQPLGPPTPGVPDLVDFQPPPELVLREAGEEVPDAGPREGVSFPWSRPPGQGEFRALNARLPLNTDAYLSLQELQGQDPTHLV
T7 sequence (looked up) 3: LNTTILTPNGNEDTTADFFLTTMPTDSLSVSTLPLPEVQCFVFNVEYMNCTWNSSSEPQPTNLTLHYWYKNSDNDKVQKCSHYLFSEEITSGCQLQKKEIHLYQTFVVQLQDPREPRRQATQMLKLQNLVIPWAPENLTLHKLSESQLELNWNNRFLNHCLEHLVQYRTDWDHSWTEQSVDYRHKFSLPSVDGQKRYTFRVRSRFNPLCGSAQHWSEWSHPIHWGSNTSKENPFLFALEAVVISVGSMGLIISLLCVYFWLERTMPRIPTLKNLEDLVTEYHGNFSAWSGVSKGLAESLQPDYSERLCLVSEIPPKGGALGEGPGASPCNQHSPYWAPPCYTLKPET

[8] = molecular target: T8, cynomolgus high affinity IL-2 receptor (CD25 with the β and γ chains) on cynomolgus peripheral blood T cells (cynomolgus monkey, UniProt H6WS54 22-272; Q38J85 27-551; A0A2K5VGJ6 23-369); experiment: cell-based or functional assay
T8 sequence 1: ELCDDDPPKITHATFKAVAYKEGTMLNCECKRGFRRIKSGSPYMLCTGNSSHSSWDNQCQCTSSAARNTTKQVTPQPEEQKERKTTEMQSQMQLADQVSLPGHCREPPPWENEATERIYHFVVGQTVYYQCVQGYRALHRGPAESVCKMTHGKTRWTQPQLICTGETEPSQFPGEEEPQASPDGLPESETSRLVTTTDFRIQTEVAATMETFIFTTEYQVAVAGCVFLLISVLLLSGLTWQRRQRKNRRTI
T8 sequence 2: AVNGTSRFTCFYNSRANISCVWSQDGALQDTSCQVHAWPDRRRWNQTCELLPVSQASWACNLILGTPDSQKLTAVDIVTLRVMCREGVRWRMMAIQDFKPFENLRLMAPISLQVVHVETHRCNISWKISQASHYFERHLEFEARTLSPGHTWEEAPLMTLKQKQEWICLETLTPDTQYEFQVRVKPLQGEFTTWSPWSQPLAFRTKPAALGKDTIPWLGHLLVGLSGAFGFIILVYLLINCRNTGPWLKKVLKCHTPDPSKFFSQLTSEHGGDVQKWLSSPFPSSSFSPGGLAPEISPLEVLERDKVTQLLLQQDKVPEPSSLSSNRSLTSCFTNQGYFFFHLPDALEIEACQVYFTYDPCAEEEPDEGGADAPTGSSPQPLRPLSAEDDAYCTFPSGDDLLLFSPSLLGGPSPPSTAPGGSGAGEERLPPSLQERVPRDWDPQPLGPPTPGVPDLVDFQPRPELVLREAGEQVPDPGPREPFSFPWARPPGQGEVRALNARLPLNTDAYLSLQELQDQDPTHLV
T8 sequence 3: T7 sequence (looked up) 3 with T14A, A16T, T22S, H141R, T228S, A326P

Kd [1]: 0.16 nM
Kd [2]: 0.36 nM
Kd [3]: 0.29 nM
Kd [4]: 24 nM
Kd [5]: 32 nM
Kd [6]: 26 nM
B1: DP47GS IgG-(IL-2 E95A)2 (other)
heavy: [about 100 residues omitted here][about 120 residues omitted here][human IgG1 Fc with changes omitted here]GGGGSGGGGSGGGGSAPASSSTKKTQLQLEHLLLDLQMILNGINNYKNPKLTRMLTFKFYMPKKATELKHLQCLEEELKPLEEVLNLAQSKNFHLRPRDLISNINVIVLPLKGSETTFMCEYADETATIVEFLNRWITFAQSIISTLT
light: [about 100 residues omitted here][about 100 residues omitted here]
notes: also called DP47 IgG-(IL-2E95A)2; DPS47GS IgG-(IL-2E95A)2

Kd [1]: 0.24 nM
Kd [2]: 2.1 nM
Kd [3]: 0.57 nM
ED50 for pSTAT5a activation, human memory Treg [7]: 11.4 pM
ED50 for pSTAT5a activation, human naïve Treg [7]: 17.7 pM
EC50 for pSTAT5a activation, cynomolgus CD4+ memory T effector [8]: > 1000 ng/mL
EC50 for pSTAT5a activation, cynomolgus activated Treg [8]: 0.7 ng/mL
EC50 for pSTAT5a activation, cynomolgus memory Treg [8]: 1.1 ng/mL
EC50 for pSTAT5a activation, cynomolgus naïve Treg [8]: 0.8 ng/mL
Kd [4]: 22 nM
Kd [5]: 30 nM
Kd [6]: 25 nM
B2: DP47GS IgG-(IL-2 N88D)2 (other)
heavy: [about 100 residues omitted here][about 120 residues omitted here][human IgG1 Fc with changes omitted here]GGGGSGGGGSGGGGSAPASSSTKKTQLQLEHLLLDLQMILNGINNYKNPKLTRMLTFKFYMPKKATELKHLQCLEEELKPLEEVLNLAQSKNFHLRPRDLISDINVIVLELKGSETTFMCEYADETATIVEFLNRWITFAQSIISTLT
light: [about 100 residues omitted here][about 100 residues omitted here]
notes: also called DP47 IgG-(IL-2N88D)2; DP47GS IgG-(IL-2N88D2)2
